The results in this text go back to patent publication US10117953B2, “Antibody drug conjugates” (Novartis AG, priority 2013, dated 2018).

The test system of test [1] is Mo7e cells (SCF-dependent). As to the kind of experiment: Mo7e proliferation assay in presence of SCF. The format is cell-based, human. Particulars: 10 ng/ml SCF, 5 days. The procedure:
To evaluate the potential antagonistic properties of the naked antibodies and the ability of the antibody drug conjugates (ADCs) to inhibit the proliferation of a cKIT-expressing cell line, MO7e (DSMZ, Catalog # ACC-104, Braunschweig, Del.) were grown in the presence or absence of cKIT ligand, Stem Cell Factor (SCF), for survival. MO7e cells were grown in either 10 ng/ml human granulocyte-macrophage colony-stimulating factor GM-CSF (R&D Systems Cat#215-GM, Minneapolis, Minn.) or 10 ng/ml human Stem Cell Factor SCF (R&D Systems Cat#255-SC) prior to seeding in 96 well plates (Costar Cat #3904, Corning, Tewksbury, Mass.) at 5000 cells/well in 100 μl dilution medium. A duplicate plate was generated for a day 0 measurement and all plates were incubated in a tissue culture incubator at 37° C. with 5% CO2 overnight. […] Assay plates were shaken gently for 20 min and the resulting luminescence intensity was measured using a Perkin Elmer 1450 Microbeta TriLux® plate reader (Perkin Elmer, Waltham, Mass.). […] Following this incubation period, relative cell viability was determined via the addition of Cell titer Glo reagent as described above. The effect of the ADCs on cell proliferation was calculated using the average of the duplicates as follows: (% Inhibition=(ADC or Ab treated)/(untreated)*100) The % inhibition data was fitted to a 4-parameter logistic equation and IC50 values were determined.

In test [2] the target is T1, wildtype cKIT in NCI-H526 cells (Homo sapiens, UniProt P10721).
T1 construct: host or cells: NCI-H526
T1 sequence (P10721 26-976): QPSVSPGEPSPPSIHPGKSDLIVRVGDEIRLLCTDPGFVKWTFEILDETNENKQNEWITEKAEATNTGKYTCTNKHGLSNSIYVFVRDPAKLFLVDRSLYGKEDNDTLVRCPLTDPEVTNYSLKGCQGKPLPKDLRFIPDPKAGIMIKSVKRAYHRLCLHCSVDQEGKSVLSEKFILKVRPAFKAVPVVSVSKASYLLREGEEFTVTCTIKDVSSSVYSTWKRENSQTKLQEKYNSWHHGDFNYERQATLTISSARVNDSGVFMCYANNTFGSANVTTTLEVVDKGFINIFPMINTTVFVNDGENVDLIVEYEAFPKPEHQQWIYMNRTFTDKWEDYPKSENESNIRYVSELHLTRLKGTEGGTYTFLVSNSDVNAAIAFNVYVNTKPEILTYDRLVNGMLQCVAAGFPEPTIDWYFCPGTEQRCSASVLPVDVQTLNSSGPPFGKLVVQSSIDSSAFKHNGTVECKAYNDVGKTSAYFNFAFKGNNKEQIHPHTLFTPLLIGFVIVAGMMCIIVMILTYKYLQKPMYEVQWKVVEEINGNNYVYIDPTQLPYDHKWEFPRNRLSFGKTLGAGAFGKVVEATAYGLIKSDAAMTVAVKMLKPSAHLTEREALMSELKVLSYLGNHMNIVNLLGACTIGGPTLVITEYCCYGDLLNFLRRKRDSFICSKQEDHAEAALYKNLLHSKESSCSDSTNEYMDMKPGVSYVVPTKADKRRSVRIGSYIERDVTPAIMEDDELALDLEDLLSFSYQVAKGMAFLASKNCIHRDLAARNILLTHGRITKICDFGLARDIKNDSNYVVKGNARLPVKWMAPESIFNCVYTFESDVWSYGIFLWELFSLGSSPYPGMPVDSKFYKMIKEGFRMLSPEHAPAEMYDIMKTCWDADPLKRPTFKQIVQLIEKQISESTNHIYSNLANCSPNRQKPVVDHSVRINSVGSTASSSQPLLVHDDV
As to the kind of experiment: cKIT degradation Western blot timecourse. The format is cell-based. The method, then:
5×10^6 of GIST-T1 (kindly provided by Dr. Takahiro Taguchi, Kochi U., Japan) or NCI-H526 (ATCC CRL-5811) cells were seeded in growth media (DMEM, 10% FBS for GIST T-1 and RPMI, 10% FBS for NCI-H526) the night before at 37° C. with 5% CO2. Cells were then treated with 100 mM cycloheximide (CHX) (Cat#090M4009, Sigma-Aldrich, St. Louis, Mo.) in methionine free medium (GIBCO: DMEM, 21013-024; RPMI, A14517-01, Life Technologies, Carlsbad, Calif.). […] Cells were harvested at 1 hour, 4 hour, and 6 hour post treatment in 1 ml PBS. […] Lysates were then spun down for 40 mins at 12,000 rpm at 4C. Five μg of each sample was boiled for 10 min at 75° C. and loaded on a 15-well NuPAGEO 4-12% Bis-Tris gel (NP0323BOX Life Technologies, Carlsbad, Calif.). After protein transfer to membrane blots, membranes were blocked in TBST-5% milk at room temperature for 1 hour and then probed with anti cKIT antibody (Cell Signaling Technology Cat#3074, Beverly, Mass.) overnight at 4° C. Blots were washed in TBST (4×5 mins) the next day. The blot was incubated in the secondary antibody (goat-anti rabbit-HRP 1:30,000, Santa Cruz Biotechnologies, Dallas, Tex.) for 1 hour at room temperature. The blot was washed in TBST (4×5 mins) and developed. The primary antibodies used for Western blotting were α-cKIT (Cell Signaling Technology Cat#3074) and GAPDH (Cell Signaling Technology Cat#3683). […]
For orientation: In western blotting, separated proteins are transferred to a membrane and probed.

In test [3] the test system is GIST T1 subcutaneous tumor xenograft. The test can be described thus: Efficacy of related ADCs at low effective dose. The format is in vivo, mouse. The settings on record: single i.v. dose 0.625 mg/kg. The procedure: The control IgG1-MCC-DM1 even at the high dose of 10 mg/kg was not active.
Test [4] has as its system NCI-H1048 small cell lung cancer xenograft. As to the kind of experiment: Anti-cKIT ADC efficacy study, single 2 mg/kg dose. In kind it is in vivo, mouse. Particulars: single intravenous dose 2 mg/kg. The procedure:
All treated groups received a single intravenous dose of 2 mg/kg.

Test [5] has as its system GIST T1 subcutaneous tumor xenograft. The test can be described thus: Efficacy of mouse cross-reactive 20376-MCC-DM1. The format is in vivo. The settings on record: single i.v. dose 0.625 mg/kg.

B1: NEG085-MCC-DM1: antibody NEG085 conjugated to DM1 via SMCC linker (conjugate)
heavy: EVQLVESGGGLVQPGGSLRLSCAASGFAFSGYYMAWVRQAPGKGLEWVANINYPGSSTYYLDSVKGRFTISRDNAKNSLYLQMNSLRAEDTAVYYCARGDYYGTTYWYFDVWGQGTTVTVSSASTKGPSVFPLAPSSKSTSGGTAALGCLVKDYFPEPVTVSWNSGALTSGVHTFPAVLQSSGLYSLSSVVTVPSSSLGTQTYICNVNHKPSNTKVDKRV[human IgG1 Fc omitted here]
light: DIQMTQSPSSLSASVGDRVTITCRASQSISSYLNWYQQKPGKAPKLLIYYTSRLQSGVPSRFSGSGSGTDFTLTISSLQPEDFATYYCQQGRRLWSFGGGTKVEIKRTVAAPSVFIFPPSDEQLKSGTASVVCLLNNFYPREAKVQWKVDNALQSGNSQESVTEQDSKDSTYSLSSTLTLSKADYEKHKVYACEVTHQGLSSPVTKSFNRGEC
Take B1: in test [1], the “inhibition of cell proliferation” value is reported as “inhibits cell proliferation of M07e cells at a low concentration”. In addition, in test [2] (5 μg/ml, after 6 hours), the “cKIT receptor level (degradation)” value is “very low/undetectable”. Besides, in test [2] (ADC alone vs ADC with rh-SCF), the “blocking of SCF binding to the cKIT receptor” value was “does not block the cKIT receptor from binding SCF”. In addition, the “antitumor activity (tumor volume)” value in test [3] is “smallest tumor volumes in the tightest range”; in test [4], “not statistically different from the vehicle”; in test [5], “hint of efficacy, although also not statistically significant”. Further, the AT/AC in test [4] is on record as 9%.
